Here are results for 22 molecules from publication PMC12136788.

The list shows a part of the results.

The chains are these.
B1: chr15:63775065:63775180:-|CDS|ENSG00000103657|unk|total|mutant (ssRNA)
RNA: GGGAGUUCUACAGUCCGACGAUCUGGUUCAGCAGAUGUCCAUUCUGUCCGUGAACGCCCCCGGUCAAGCACUGAUGCACUUACCGAAAUGGGUGUUCGAACUGGUCUAAGUUUAUUAUUUGCGCUUCUAAGACAAAGUUGGAUCAACAGAGGAUUGAGCAUCA
B2: chrX:103676501:103676735:-|CDS|ENSG00000123562|unk|total|mutant (ssRNA)
RNA: GGGAGUUCUACAGUCCGACGAUCGGAGGUUAAAGUGAAGAUUCCUGAAGAAUUAAAACCAUGGCUUGUUGAGGACUGGGACUCCGUUACCAGGCAGAAGCAGCUGUUUCAACUCCCUGCCAAGAAAAAUGCCGAUGCAAUUCUCAACAGAGGAUUGAGCAUCA
B3: chr2:171482635:171482736:+|3pUTR|ENSG00000115827|unk|FALSE|unique (ssRNA)
RNA: GGGAGUUCUACAGUCCGACGAUCCAAGAGUGUUUCAGAAUAGGAUGUCUUAAGACUUCAGUCAUGUCAGAGAUUUUUUUUUUUAGGUGAUUAUUGAGUUUCUCCUUCUCCUUUAAGUCAUCACCUUCCUUUUAUGAAAUGAUACAACAGAGGAUUGAGCAUCA
B4: chr1:173887777:173887878:+|3pUTR|ENSG00000185278|unk|total|mutant (ssRNA)
RNA: GGGAGUUCUACAGUCCGACGAUCAAAGAGAUUUGGCAGAGGGACAGGUUGUACCUGCACUGGUGAACCAUCUGUGAGAAUGUCCGUCAUGUGCUCCUUUCCUGAGAUUGCUUUGUGGUAUGUGAAAAGGUGGGCCGAAAAGAACAACAGAGGAUUGAGCAUCA
B5: chrX:80717640:80717741:-|CDS|ENSG00000165288|msi1|FALSE|unique (ssRNA)
RNA: GGGAGUUCUACAGUCCGACGAUCCUGAGAAGUCCAAACAUGGACAUAUCUUCUUCCCCAAACAUCAGGCUUCGAAGACAUAGUAGUCAAAUUGAAGGUGUUAGACAAAUGCAUAACAAUGCUCCUCGGAGCCAGAUGGCCACUCAACAGAGGAUUGAGCAUCA
B6: chr13:52461607:52461862:+|CDS|ENSG00000136108|unk|FALSE|bound_elsewhere (ssRNA)
RNA: GGGAGUUCUACAGUCCGACGAUCGUUACAAUCCGGAAAGGGCCUCAUGAAAAAGAACUAUUACAAUCAAAAACAGCUUUAUCUAGUGUCAAAACCAGUUCUUCUCAAGGUAUAAUAAGAAAUAAGACUCUAUCAAGAUCCAUACAACAGAGGAUUGAGCAUCA
B7: chr12:57820040:57820141:-|3pUTR|ENSG00000175215|msi1|FALSE|unique (ssRNA)
RNA: GGGAGUUCUACAGUCCGACGAUCUUUUGCUUAUCAUGUUCCAUUUCGUGCCGCUUUCCCCCUUCAAGAUGCCAUUUGGAGGGUAGGGGAUCUGCUUCCCACUGUGACUGGGCUAUGGGAUUCUGACUACCUUGCUUACAGAUUCAACAGAGGAUUGAGCAUCA
B8: chr15:41696124:41696239:+|CDS|ENSG00000174197|unk|FALSE|unique (ssRNA)
RNA: GGGAGUUCUACAGUCCGACGAUCUGUAGCCUCACCGUUAGACCAGAACGGAAGCUUCAAUGUUGUUAUUAAAGAGGAACCUCUAGAUGAUUAUGACUACGAACUUGGUGAGUGCCCAGAAGGGGUCACUGUGAAACAGGAAGACAACAGAGGAUUGAGCAUCA
B9: chr1:193096648:193096749:-|CDS|ENSG00000023572|msi1_unk|FALSE|overlapping (ssRNA)
RNA: GGGAGUUCUACAGUCCGACGAUCCAACAGGUUCCAAGAAUAUUUGUCAAUGGUACUUUUAUUGGAGGUGCAACUGACACUCAUAGGCUUCACAAAGAAGGAAAAUUGCUCCCACUAGUUCAUCAGUGUUAUUUAAAAAAAAGUCAACAGAGGAUUGAGCAUCA
B10: chr6:105098072:105098315:-|3pUTR|ENSG00000112276|msi1|total|mutant (ssRNA)
RNA: GGGAGUUCUACAGUCCGACGAUCGUACUUUAAAUUCAUUUAUACAAAUGAAUAAGUGUAUCUUUGUAUAAUGCAUAAAUACACCGAUAAAAACAUGUUUGCUGCCAAAGUUCCCAAUAAGAUGCUUCCUGUGUUUUUUGGCCUCAACAGAGGAUUGAGCAUCA
B11: chr15:59095394:59095499:+|3pUTR|ENSG00000157450|unk|FALSE|unique (ssRNA)
RNA: GGGAGUUCUACAGUCCGACGAUCUAAAUACCAUCCUUAAUACUGGGAACAGAAUACAACCCAUAUAAAUCAGAUGCAGGUGGUAGUCACAUCACCAGAGUGAUCAGUAUAAAUUUUCUUGGUGUAUCCUUUUCCUUUCAACACCAACAGAGGAUUGAGCAUCA
B12: chr14:92163265:92163366:+|3pUTR|ENSG00000165934|msi1|total|mutant (ssRNA)
RNA: GGGAGUUCUACAGUCCGACGAUCUAAUAUCAGACUCGAAUUACUAUUUCAUUCUAUUUCAAAUGCUUAUAAAGCUACUAUUGCCGAUUACCGUGUUAAUGCAAAGUUUACAGACUUUUGAUAUGGAAAACCAGAUAAAACAAUCAACAGAGGAUUGAGCAUCA
B13: ENSG00000186575:stop:overlap|stop_codon|ENSG00000186575|stop_codon|NA|stop_codon (ssRNA)
RNA: GGGAGUUCUACAGUCCGACGAUCCCAUUAAAAAGCUCACCUUGCAGAGCGCCAAGUCCCGAGUGGCCUUCUUUGAAGAGCUCUAGCAGGUGACCCAGCCACCCCAGGACCUGCCACUUCUCCUGCUACCGGGACCGCGGGAUGCAACAGAGGAUUGAGCAUCA
B14: ENSG00000136451:be:win_1901|3pUTR|ENSG00000136451|bound_else_gene|NA|bound_elsewhere_windowed (ssRNA)
RNA: GGGAGUUCUACAGUCCGACGAUCUCCCAAGGAAUCACUUUAUUGUAAACACUAGCAGAACUCUUCUCCCUAUACAAGGUGGAUGGCUGAUUUUAACCUGAAAUUUUAAAUCCACAGAUUGAGAGCUAGUGUAGAAUUGUCUGUCAACAGAGGAUUGAGCAUCA
B15: chr1:192811693:192811799:+|3pUTR|ENSG00000116741|unk|FALSE|unique (ssRNA)
RNA: GGGAGUUCUACAGUCCGACGAUCCUUGAAUUCAGCCUGGGUGUUCAGGAAACAUCACUCAGAACUAUUGAUUCAAAGUUGGGUAGUGAAUCAGGAAGCCAGUAACUGACUAGGAGAAGCUGGUAUCAGAACAGCUUCCCUCACCAACAGAGGAUUGAGCAUCA
B16: chr6:44253573:44253761:+|CDS_3pUTR|ENSG00000096384|msi1_unk|FALSE|overlapping (ssRNA)
RNA: GGGAGUUCUACAGUCCGACGAUCUCGCAUGGAAGAAGUCGAUUAGGUUAGGAGUUCAUAGUUGGAAAACUUGUGCCCUUGUAUAGUGUCCCCAUGGGCUCCCACUGCAGCCUCGAGUGCCCCUGUCCCACCUGGCUCCCCCUGCAACAGAGGAUUGAGCAUCA
B17: chr5:171862525:171862626:-|3pUTR|ENSG00000072803|msi1|total|mutant (ssRNA)
RNA: GGGAGUUCUACAGUCCGACGAUCGACAGUGCAUGGAAAGGACGUUGGCAUCCAAUUGGCACUCCUUCUCCCUUAUUCAAUAUCCGGUUUGAUUUGCCCUUCGCCAUUGUUUCCAAAGAUCAAGGAAUGUCAAUAACAUUUUAACAACAGAGGAUUGAGCAUCA
B18: chr1:150144965:150145066:+|3pUTR|ENSG00000136631|msi1|FALSE|unique (ssRNA)
RNA: GGGAGUUCUACAGUCCGACGAUCAGACUCCCAGAGUUGUCCUAACAAUAAGUCUGAGCCCAUCUCAACCCACUUUUCUCCGGUAGUCUUUAUGUAUCUGUUAGCACAAUCACUUCAGUUACUGAUGAAUUUUGUUGGGAUCUGCAACAGAGGAUUGAGCAUCA
B19: chr8:20179120:20179484:-|CDS|ENSG00000036565|control|control|control (ssRNA)
RNA: GGGAGUUCUACAGUCCGACGAUCCAUCUUCUCCUUCUUCAACAACAACACCGUGGCUGUUGAAGAAAGCGUACCUAGUGGAAUAGCAUGGAUGAAUGACACUGCCAGCACCAUCCCACCUCCAGCCACUGAAGCCAUCUCAGCCAACAGAGGAUUGAGCAUCA
B20: ENSG00000070961:be:win_5301|3pUTR|ENSG00000070961|bound_else_gene|NA|bound_elsewhere_windowed (ssRNA)
RNA: GGGAGUUCUACAGUCCGACGAUCUUGCCUCUGUCUUUACCCUUUAGAAACUGGCAUGUGUUAGGGCCCAGAUUUCACCAGAUACACAAUCCUCAGGCUGACAUAAAGUUUACGAGGACUGCUACUAUAACUGAGAGUGCUGACCAACAGAGGAUUGAGCAUCA
B21: chr1:155263244:155263345:-|CDS|ENSG00000176444|unk|FALSE|unique (ssRNA)
RNA: GGGAGUUCUACAGUCCGACGAUCGUAUCUGACCUCAGAGGCAGAGGAACACCACCAGCUCUUCGAUCUGAUUGAAAGCAUGCUAGAGUAUGAACCAGCUAAGCGGCUGACCUUGGGUGAAGCCCUUCAGCAUCCUUUCUUCGCCAACAGAGGAUUGAGCAUCA
B22: chr20:4701031:4701132:+|3pUTR|ENSG00000171867|msi1|FALSE|unique (ssRNA)
RNA: GGGAGUUCUACAGUCCGACGAUCCAUAGUUUCUGUAAUUGGCUUUUGAAUCAAAGAAUAGGGAGACAAUCUAAAAAAUAUCUUAGGUUGGAGAUGACAGAAAUAUGAUUGAUUUGAAGUGGAAAAAGAAAUUCUGUUAAUGUUCAACAGAGGAUUGAGCAUCA

The test has as its target MSI1 full-length (mouse, UniProt Q61474 1-362). The test can be described thus: nsRBNS (natural sequence RNA bind-n-seq); RBNS binding buffer (assumed for nsRBNS): 25 mM Tris pH 7.5, 150 mM KCl, 3 mM MgCl2, 0.01% Triton X-100, 500 ug/ml BSA, 20 U/ml SUPERase-In, 4 C; UNK is unkempt and MSI1 is Musashi-1; names of the RNAs are library labels; protein concentration not given here; high values mean tight binding.
Chain of UniProt Q61474 (Q61474 whole entry): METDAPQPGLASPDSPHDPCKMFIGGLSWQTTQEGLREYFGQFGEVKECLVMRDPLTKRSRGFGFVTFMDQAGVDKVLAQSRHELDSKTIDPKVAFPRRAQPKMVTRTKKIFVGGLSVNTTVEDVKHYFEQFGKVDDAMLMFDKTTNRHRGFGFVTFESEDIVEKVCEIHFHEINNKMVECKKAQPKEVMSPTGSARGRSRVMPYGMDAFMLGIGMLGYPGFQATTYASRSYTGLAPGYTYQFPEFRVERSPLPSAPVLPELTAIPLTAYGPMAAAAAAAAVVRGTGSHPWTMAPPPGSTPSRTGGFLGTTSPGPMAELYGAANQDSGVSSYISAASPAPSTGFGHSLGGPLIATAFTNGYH
Molecule B1 displayed a binding signal of 0.316 enrichment R.

Consider B2, for which the binding signal was determined as 0.539 enrichment R.

Regarding B3, the binding signal stood at 0.919 enrichment R.

Molecule B4 displayed a binding signal of 0.515 enrichment R.

B5 showed a binding signal of 1.8 enrichment R.

With B6, the binding signal amounted to 10.8 enrichment R.

Turning to B7, the binding signal was determined as 0.539 enrichment R.

As to B8, the binding signal amounted to 0.654 enrichment R.

B9 registered a binding signal of 7.98 enrichment R.

For B10, the binding signal was found to be 0.276 enrichment R.

B11 gave a binding signal of 0.744 enrichment R.

As to B12, the binding signal was determined as 0.4 enrichment R.

B13: the binding signal came to 0.435 enrichment R.

On to B14, for which the binding signal is 0.611 enrichment R.

B15 came in with a binding signal of 0.283 enrichment R.

For the molecule B16, the binding signal was determined as 1.6 enrichment R.

B17 showed a binding signal of 0.579 enrichment R.

B18: the binding signal came out at 0.547 enrichment R.

In the case of B19, the binding signal amounted to 0.332 enrichment R.

Molecule B20 returned a binding signal of 0.545 enrichment R.

The molecule B21 displayed a binding signal of 0.393 enrichment R.

As for B22, the binding signal turned out to be 0.766 enrichment R.
